Test results from article PMC4336329 (PLoS ONE, 2015).
The whole screen tested about 310,000 compounds, of which about 2,200 (0.71%) showed an effect of 50% or more. The effect is printed as a negative number. Some of the results follow.

What follows are molecules tested against human ether-à-go-go-related gene (hERG) potassium channel (human, UniProt Q12809) (assay: primary screen, population patch clamp on CHO cells stably expressing hERG).
Chain of human ether-à-go-go-related gene (hERG) potassium channel (Q12809 whole entry, looked up): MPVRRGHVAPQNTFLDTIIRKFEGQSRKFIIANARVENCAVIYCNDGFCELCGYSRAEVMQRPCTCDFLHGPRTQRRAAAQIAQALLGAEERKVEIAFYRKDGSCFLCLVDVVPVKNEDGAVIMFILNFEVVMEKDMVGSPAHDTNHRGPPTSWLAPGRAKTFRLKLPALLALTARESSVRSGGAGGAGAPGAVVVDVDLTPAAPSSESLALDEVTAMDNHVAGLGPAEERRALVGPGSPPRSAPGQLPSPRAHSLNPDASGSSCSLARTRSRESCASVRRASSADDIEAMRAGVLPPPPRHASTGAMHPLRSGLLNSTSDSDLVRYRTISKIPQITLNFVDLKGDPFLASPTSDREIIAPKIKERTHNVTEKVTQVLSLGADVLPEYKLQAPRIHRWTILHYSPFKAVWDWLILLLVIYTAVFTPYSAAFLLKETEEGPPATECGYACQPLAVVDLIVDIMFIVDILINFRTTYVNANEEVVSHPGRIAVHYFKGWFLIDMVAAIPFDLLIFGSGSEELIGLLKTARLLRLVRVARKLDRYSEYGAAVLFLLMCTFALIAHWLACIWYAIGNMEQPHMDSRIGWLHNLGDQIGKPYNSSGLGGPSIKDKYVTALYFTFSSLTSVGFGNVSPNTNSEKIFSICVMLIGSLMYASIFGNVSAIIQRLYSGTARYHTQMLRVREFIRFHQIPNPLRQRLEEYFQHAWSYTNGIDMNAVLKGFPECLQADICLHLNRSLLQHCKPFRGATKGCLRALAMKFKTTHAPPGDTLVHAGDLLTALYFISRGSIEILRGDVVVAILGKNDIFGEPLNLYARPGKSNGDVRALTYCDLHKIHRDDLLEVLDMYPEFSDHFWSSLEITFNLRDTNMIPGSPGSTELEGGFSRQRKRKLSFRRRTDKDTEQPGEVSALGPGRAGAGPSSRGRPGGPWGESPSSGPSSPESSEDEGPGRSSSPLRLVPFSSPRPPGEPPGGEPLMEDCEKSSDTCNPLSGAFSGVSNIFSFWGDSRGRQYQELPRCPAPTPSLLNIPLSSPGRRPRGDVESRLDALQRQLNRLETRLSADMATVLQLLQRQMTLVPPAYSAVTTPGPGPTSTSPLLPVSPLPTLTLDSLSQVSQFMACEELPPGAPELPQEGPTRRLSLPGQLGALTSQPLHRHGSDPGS

| SMILES | hERG current change (%, negative = inhibition) at 1uM [%] |
| --- | --- |
| CC(C)NC(=O)COC(=O)c1ccccc1CSC1=NCCS1 | 13 |
| Cc1cc2nc3n(c2cc1C)CC1CC(C(=O)NCC2CC2)N(C)C31 (stereo not drawn) | 8.23 |
| Cc1ccc(C(=O)O)cc1NC(=O)Nc1cccc2ccccc12 | 10.4 |
| Cn1cccc1/C=N/n1c(-c2ccccc2)n[nH]c1=S | 8.01 |
| Cc1ccc(S(=O)(=O)NCCCN(C)C)cc1.Cl | 1.55 |
| COc1cccc(NC(=S)N2CCN(C)CC2)c1 | 7.73 |
| Cc1nnc2n(C3CCCCC3)c(=O)c3c4c(sc3n12)COC(C)(C)C4 | 3.79 |
| N#CC(/C(=N/S(=O)(=O)c1cccs1)c1ccccc1)c1nc2ccccc2[nH]1 (stereo not drawn) | 11.6 |
| COC(=O)CSc1nnc2n1C(C)(C)Cc1ccccc1-2 | 7.32 |
| Cn1c(SCC(=O)c2ccc3c(c2)NC(=O)CO3)nc2ccccc21 | 8.01 |
| COC(=O)c1nnn(-c2nonc2N)c1COc1ccc(C=O)cc1OC | -1.8 |
| CN(Cc1ccccc1)C(=O)CN(Cc1ccccc1)S(C)(=O)=O | 8.26 |
| Cc1nc2ccc(Br)cn2c1C(=O)N/N=C\c1ccc(C(C)C)cc1 | 17.1 |
| COCCCn1c(SCC(N)=O)nnc1-c1ccccc1 | 2.18 |
| CC(=O)Cc1nsc(NC(=O)c2ccc(Cl)cc2Cl)n1 | 1.23 |
| OCCN1CCN(c2ncnc3c2c(-c2ccccc2)cn3-c2ccc(F)cc2)CC1 | -7.44 |
| Cc1ccc(C23CCC(=O)N2C(C(=O)O)CS3)c(C)c1 (stereo not drawn) | 13.4 |
| Cc1[nH]c(C(=O)O)c(C#N)c1C(=O)c1ccccc1 | 14.8 |
| Cc1c(Cl)cccc1NC(=S)NC(=O)CCN1C(=O)c2ccccc2C1=O | 6.66 |
| Cc1ccc(NC(=S)N2CCN(Cc3ccccc3)CC2)c(C)c1 | 9.22 |
| FC(F)(F)c1cccc(CNC(=S)Nc2ccccc2)c1 | 7.03 |
| COCc1cc(=O)n2[nH]c(SC)nc2n1 | -12.9 |
| CC(=O)Nc1cc(-c2ccc(Cl)cc2)nn1-c1ccccc1 | 10.1 |

| SMILES | hERG current change (%, negative = inhibition) at 1uM [%] |
| --- | --- |
| Cc1ccc(C)c(NC(=S)N2CCC(NC(=O)c3ccc(F)cc3)CC2)c1 | 17.7 |
| COC(=O)C(C)Oc1ccc2c(c1)O/C(=C\c1cccc(Br)c1)C2=O (stereo not drawn) | 1.18 |
| O=C(NNC(=O)C1CCN(S(=O)(=O)c2cccc(C(F)(F)F)c2)CC1)C1CC1 | 7.48 |
| CCCCC(CC)C(=O)Nc1ncc([N+](=O)[O-])s1 (stereo not drawn) | 5.38 |
| Cc1cc(-c2nnc(CCC(=O)NCc3ccc(F)c(F)c3)o2)no1 | 13.6 |
| O=S(=O)(NC1C2CC3CC(C2)CC1C3)c1ccccc1 (stereo not drawn) | 6.23 |
| Cn1cnnc1Sc1ccc(C(=O)OCC(=O)NCC(F)(F)F)cc1[N+](=O)[O-] | 1.05 |
| Cc1ccsc1/C=N/NC(=O)Cn1nc(C)c([N+](=O)[O-])c1C | 10.4 |
| Cc1cc(C)cc(OCC(=O)Nc2ccc3c(c2)C(=O)c2ccccc2C3=O)c1 | 17.4 |
| CC(=O)Nc1ccc(SCC(=O)c2cc(C)n(C)c2C)cc1 | 8.09 |
| Cc1c(OCC(=O)N2C[C@H]3C[C@@H](C2)c2cccc(=O)n2C3)ccc2c3c(c(=O)oc12)CCCC3 | 2.19 |
| CCn1cc([N+](=O)[O-])nc1C | 7.47 |
| CCC1=NNC(=O)C(CC(=O)Nc2ccccc2)c2cc(OC)c(OC)cc21 (stereo not drawn) | 8.25 |
| CCOC(=O)Cc1csc(SC(C)C(=O)Nc2ccc(NC(C)=O)cc2)n1 (stereo not drawn) | 4.01 |
| O=S(=O)(NCc1ccccn1)c1ccccc1 | 13.6 |
| CCOc1ccc(Br)cc1S(=O)(=O)NCc1ccncc1 | 12.1 |
| N#CCc1c(C#N)c(N)nc(N2CCN(c3ccc(F)cc3)CC2)c1C#N | -10.4 |
| S=C(Nc1ccccc1)Nn1cnnc1 | 0.218 |
| O=C1C2CC=CCC2C(=O)N1c1ccc(NCCc2ccc(O)cc2)c([N+](=O)[O-])c1 (stereo not drawn) | -0.0463 |
| Cc1ccc(-n2nc3c(=O)n(CCCC(=O)NCc4ccc(C)o4)nc(C)c3c2C)cc1 | 16.2 |
| N#Cc1ccccc1Sc1ccccc1C(=O)Nc1ccc(Br)cc1 | 19 |
| C=CCn1c(COc2ccc(F)cc2)nnc1SCC(=O)NC(=O)NCc1ccco1 | -4.04 |
